According to PubChem BioAssay AID1347417 (National Center for Advancing Translational Sciences (NCATS), 2020):
About 5,300 (4.4%) of roughly 120,000 compounds were called active. Inconclusive results, whose numbers are uncertain, are shown with a selection of clear calls. Calls come from the whole dose curve; as a rule, active = well fitted inhibition curve with a large enough effect; inconclusive = small, poorly fitted or top-dose-only effect; inactive = no such curve, though single readings can be large or run the other way. A potency beside an inconclusive call is a rough fit, not a confirmed value.

Experiment: qHTS Primary assay for Inhibitors of Plasmodium falciparum Dd2 growth in vitro; note: nearly all actives have a fitted effect of over 65% in size;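 for activity, negative = inhibition: plate controls were DMSO vehicle for no effect and reference drug for full effect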
Settings: P. falciparum Dd2 growth, SYBR Green, 72 h; activity, negative = inhibition: at 28.9 µM (top of the series) unless noted; series mostly up to 28.9 µM
Summary of the method: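 Readout: SYBR Green fluorescence, 485 nm excitation, 535 nm emission, after ~16 h lysis at 37C. Before that, Dd2-infected red cells (2.5% hematocrit) grew 72 h with compound, 29 uM top final concentration.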
Potency is the fitted concentration of half-maximal effect; tags give direction and shape of the fitted curve.

Row | SMILES | Potency | activity, negative = inhibition | outcome
1 | O=C(CCC[C@@H]1[C@H]2CCCN3CCC[C@@H](CN1C(=O)c1ccccc1)[C@@H]23)Nc1ccccc1 | inconclusive: 17.8 µM [inhibitor, single point] |  | 
2 | CC(=O)c1ccc(NC(=O)CC2Nc3cccc4cccc(c34)NC2=O)cc1 (centres undefined) | inactive |  | 
3 | NC(=O)c1cccc2[nH]c([C@H]3CCN(Cc4cccc(Cl)c4)C3)nc12 | inconclusive: 15.8 µM [inhibitor, single point] |  | 
4 | CC(C)N1C[C@H](O)C[C@H]1c1nc(-c2ccc3c(c2)OCO3)no1 | inactive |  | 
5 | CCc1cc(=O)n(CC(=O)Nc2ccccc2F)c(-c2cccc(F)c2)n1 | inactive |  | 
6 | CCOC(=O)c1ccccc1NC(=O)Nc1cc2c(cc1N1CCCCC1)n(C)c(=O)n2C | inconclusive: 3.98 µM [inhibitor, partial curve, poor fit] |  | 
7 | O=C(Cc1cccs1)N1CCCN(CCc2ccccc2)c2ccccc21 | inactive |  | 
8 | Cc1nn(-c2ccc(F)cc2)c(-n2cccc2)c1C(=O)NCCCN1CCN(c2ccccc2F)CC1 | inconclusive: 8.91 µM [inhibitor, partial curve, poor fit] |  | 
9 | CC[C@H]1CN(S(=O)(=O)c2ccc(OC)cc2)CC[C@H]1CC(=O)N1CCOCC1 | inconclusive: 11.2 µM [inhibitor, single point] |  | 
10 | OC[C@@H]1CN(CC2CCCCC2)C[C@H]1c1nc(C2CC2)no1 | inconclusive: 14.1 µM [inhibitor, partial curve, poor fit] |  | 
11 | CC1(C(=O)NC2COC2)CN(Cc2ccccc2)Cc2ccc(Nc3ccccc3)nc21 (centres undefined) | inconclusive: 10 µM [inhibitor, partial curve, poor fit] |  | 
12 | COc1cccc(NC(=O)CCc2c(C)nc3c4cccnc4nn3c2C)c1 | inconclusive: 1.26 µM [inhibitor, full curve] |  | 
13 | O=C(Nc1ccc(F)cc1F)N1CCC(Oc2ncccc2C(=O)N2CCCCC2)C1 (centres undefined) | inactive |  | 
14 | Cc1nn(-c2nc(-c3ccc(F)cc3)cc(C(F)(F)F)n2)c(C)c1Br | inconclusive: 6.31 µM [inhibitor, partial curve, poor fit] |  | 
15 | COC(=O)c1cc(C)nc2c1c(=O)nc(SCc1cccc(C)c1)n2C1CC1 | inactive |  | 
16 | Cc1cccc(CC(=O)N2CCC3(CC2)CCC(O)(CN(C)C)CC3)c1 | inconclusive: 17.8 µM [inhibitor, single point] |  | 
17 | CCOc1ccc(NC(=O)Cn2c(=O)n(-c3ccccc3)c(=O)c3c2cc(C)n3C)cc1 | inconclusive: 17.8 µM [inhibitor, single point] |  | 
18 | O=C(Cc1ccccc1Cl)NCc1nnc2c(-c3nc(C4CC4)no3)cccn12 | inconclusive: 1 µM [inhibitor, partial curve, poor fit] |  | 
19 | CN1CC(=O)N(C2CCNCC2)Cc2c(NCC3CCCCCC3)ncnc21 | inconclusive: 7.08 µM [inhibitor, partial curve, poor fit] |  | 
20 | FC(F)(F)c1ccc(CN2CCNc3cc(Nc4cccnc4)ncc3C2)cc1 | inconclusive: 3.98 µM [inhibitor, partial curve, poor fit] |  | 
21 | Cc1ccc(-c2cc(C(=O)N3CCN(S(=O)(=O)c4ccc(Br)cc4)CC3)[nH]n2)cc1C | inconclusive: 17.8 µM [inhibitor, single point] |  | 
22 | CN(C)C[C@@H]1CN(Cc2ccccn2)C[C@H]1NS(=O)(=O)c1cccc(F)c1 | inconclusive: 4.47 µM [inhibitor, full curve, poor fit] |  | 

Row | SMILES | Potency | activity, negative = inhibition | outcome
23 | O=C1NCc2ccccc2CC12CCCCN2CC1CCCC1 (centres undefined) | inconclusive: 2.82 µM [inhibitor, partial curve, poor fit] |  | 
24 | CC1(C)[C@H](Cc2cc(CCO)on2)C[C@@H]1NCC1CC1 | inactive |  | 
25 | CCOCc1nc(C2CCCN(C(=O)c3ccccn3)C2)no1 (centres undefined) | inactive |  | 
26 | CN(CCc1noc(C2CN(Cc3ccc(Cl)c(F)c3)C2)n1)S(C)(=O)=O | inconclusive: 20 µM [inhibitor, partial curve, poor fit] |  | 
27 | O=C(O)c1ccc(C2CCCN(C(=O)CSCC3CC3)C2)cc1 (centres undefined) | inactive |  | 
28 | COCCn1ncc(N2CCC(C(=O)NCc3nc4ccccc4n3C)C2)cc1=O (centres undefined) | inconclusive: 1 µM [inhibitor, single point] |  | 
29 | CC(C)c1noc(C2CCCN(Cc3cn(C(C)C)c4ccccc34)CCC(=O)NCC2)n1 (centres undefined) | inconclusive: 14.1 µM [inhibitor, partial curve, poor fit] |  | 
30 | Cc1c(CC(=O)NC(C)C2CC2)c2c(n1Cc1ccccc1F)CCCC2=O (centres undefined) | active: 10 µM |  | 
31 | COc1ccc(CN2CCc3nc(C(=O)NCc4cccc(F)c4)oc3CC2)cc1OC | inconclusive: 3.98 µM [inhibitor, single point] |  | 
32 | CC(C)CCNC(=O)Nc1ccc2c(c1)N(C)C(=O)c1ccccc1S2 | inconclusive: 10 µM [inhibitor, single point] |  | 
33 | CC1CCN(c2ccc(CNC(=O)CN3CCCc4nc(C5CC5)ncc4C3=O)cc2)CC1 | inconclusive: 8.91 µM [inhibitor, partial curve] |  | 
34 | O=C1NCCOCCCN(C(=O)C2(c3ccccc3)CC2)[C@H]2CCCC[C@@H]12 | inconclusive: 17.8 µM [inhibitor, single point] |  | 
35 | CC(C)CN(CC1CN(C(=O)c2ccc(Cl)c(Cl)c2)CCO1)C(=O)c1ccc(F)cc1 (centres undefined) | inactive |  | 
36 | COc1cc(NC(=O)c2cc(-c3cccs3)on2)c(OC)cc1Cl | inconclusive: 0.158 µM [inhibitor, full curve, poor fit] |  | 
37 | O=C(CC1=C2CCCCC2N(Cc2ccc(F)cc2)C1=O)NC1CC1 (centres undefined) | inactive |  | 
38 | COc1ccc(Cl)cc1NC(=O)c1cc2ccc3ccc(C)[nH]c3c2n1 | active: 11.2 µM |  | 
39 | Cn1cc(S(=O)(=O)c2ccc(Cl)cc2)c(=O)c2cc(F)c(N3CCCC3)cc21 |  | inconclusive: -165% [inhibitor] [at 5.79 µM] | 
40 | CC(C)C(=O)N1CCC(O)(c2ccccc2)[C@H](N(C)C)C1 (some centres undefined) |  |  | inactive [at 5.79 µM]
41 | Cc1ccccc1OCC(=O)Nc1ccc2nc(SCC(=O)N(C)c3ccccc3)sc2c1 | inactive |  | 
42 | COc1ccc(NC(=O)c2ccc(Cn3ccn4nc5c(c4c3=O)CCCC5)cc2)cc1 | inconclusive: 12.6 µM [inhibitor, single point] |  | 
43 | COC[C@@H]1CN(S(=O)(=O)c2ccc(F)cc2F)C[C@H]1C(N)=O | inconclusive: 3.55 µM [inhibitor, full curve] |  | 
44 | O=C1Nc2ccccc2CC12CCN(CC1CC1)CC2 | inconclusive: 31.6 µM [inhibitor, single point] |  | 

Row | SMILES | Potency | activity, negative = inhibition | outcome
45 | CC(C)(C)OC(=O)N1CCC(c2c(C(=O)N3CCN(c4ccc(Cl)cc4)CC3)cnn2-c2ccc(F)cc2F)CC1 | active: 11.2 µM |  | 
46 | Cc1ccc(OCC(=O)OCc2cc(=O)n3nc(-c4cccs4)sc3n2)cc1 | inactive |  | 
47 | Cc1ccc(C(=O)N2CCC3(CC2)C(=O)N(C)c2ccccc23)cc1C | inconclusive: 10 µM [inhibitor, partial curve, poor fit] |  | 
48 | CN1CC(=O)N(c2ccccc2)Cc2c1ncnc2N1CCc2ccccc2C1 | inconclusive: 12.6 µM [inhibitor, single point] |  | 
49 | CC(C)c1noc(C2Cc3ccccc3N2C(=O)Nc2ccc3c(c2)OCCO3)n1 (centres undefined) | inconclusive: 3.98 µM [inhibitor, single point] |  | 
50 | COc1ccc(CNC(=O)C2CCN(C(=O)c3ccc(-n4ccc5ccccc54)s3)CC2)cc1 | inconclusive: 17.8 µM [inhibitor, single point] |  | 
51 | N#Cc1cccc(CN2C[C@@H](CO)[C@H](C(=O)NC3CC3)C2)c1 | inconclusive: 6.31 µM [inhibitor, partial curve] |  | 
52 | OC(c1ccccc1)c1cn(C2CCN(Cc3cnc4ccccc4c3)CC2)nn1 (centres undefined) | inconclusive: 10 µM [inhibitor, partial curve, poor fit] |  | 
53 | COCCN(C)C[C@H]1C[C@@H](CO)CN(C(=O)c2ccc(F)cc2C)C1 | inactive |  | 
54 | COCCCNC(=O)c1cnn(-c2ccccc2Cl)c1C1CCN(C(=O)OC(C)(C)C)CC1 | inconclusive: 11.2 µM [inhibitor, single point] |  | 
55 | Cn1ccnc1CNC(=O)C[C@@H]1C[C@H]2O[C@H](CN)[C@@H](O)[C@H]2O1 | inactive |  | 
56 | COc1ccc(C(=O)N2C[C@@H]3OCC(=O)N(Cc4nccn4C)[C@@H]3C2)cc1 | inactive |  | 
57 | Cc1ccc([C@H]2C[C@@H](O)[C@@H](O)[C@@H]2NCc2ccccc2)cc1 | inconclusive: 2.24 µM [inhibitor, partial curve, poor fit] |  | 
58 | O=C1[C@@H]2C[C@@H](O)CN2C2(CN(Cc3cccc(F)c3)C2)C(=O)N1Cc1ccccc1 | inconclusive: 14.1 µM [inhibitor, single point] |  | 
59 | Fc1ccc(OCc2nc(C3CCCN3)no2)cc1 (centres undefined) | inconclusive: 3.98 µM [inhibitor, single point] |  | 
60 | COc1ccccc1N1CCN(C(=O)c2cc3cn(C4CCCC4)cc3s2)CC1 | inconclusive: 5.01 µM [inhibitor, partial curve, poor fit] |  | 
61 | Cc1ccc(CN2CC(C(=O)NCCc3ccncc3)C3(CCOCC3)C2)s1 (centres undefined) | inconclusive: 17.8 µM [inhibitor, single point] |  | 
62 | COCCn1c(C)cnc1CCNC(=O)C1(c2ccc(OC)cc2)CC1 | inconclusive: 2.82 µM [inhibitor, single point] |  | 
63 | CC(C)Oc1ccc(CNC(=O)C2CCCCC(=O)N2Cc2ccccc2)cc1 (centres undefined) | inconclusive: 17.8 µM [inhibitor, single point] |  | 
64 | Cc1cccc(N2CCN(S(=O)(=O)c3ccc(F)c(C(=O)Nc4ccc(C(C)C)cc4)c3)CC2)c1C | inconclusive: 17.8 µM [inhibitor, single point] |  | 
